The whole screen tested about 310,000 compounds, of which about 2,200 (0.71%) showed an effect of 50% or more. Effects have a minus sign here. Some of the results follow.
What follows are compounds tested against human ether-à-go-go-related gene (hERG) potassium channel (human, UniProt Q12809) (assay: primary screen, population patch clamp on CHO cells stably expressing hERG).
human ether-à-go-go-related gene (hERG) potassium channel, sequence (Q12809 whole entry, looked up): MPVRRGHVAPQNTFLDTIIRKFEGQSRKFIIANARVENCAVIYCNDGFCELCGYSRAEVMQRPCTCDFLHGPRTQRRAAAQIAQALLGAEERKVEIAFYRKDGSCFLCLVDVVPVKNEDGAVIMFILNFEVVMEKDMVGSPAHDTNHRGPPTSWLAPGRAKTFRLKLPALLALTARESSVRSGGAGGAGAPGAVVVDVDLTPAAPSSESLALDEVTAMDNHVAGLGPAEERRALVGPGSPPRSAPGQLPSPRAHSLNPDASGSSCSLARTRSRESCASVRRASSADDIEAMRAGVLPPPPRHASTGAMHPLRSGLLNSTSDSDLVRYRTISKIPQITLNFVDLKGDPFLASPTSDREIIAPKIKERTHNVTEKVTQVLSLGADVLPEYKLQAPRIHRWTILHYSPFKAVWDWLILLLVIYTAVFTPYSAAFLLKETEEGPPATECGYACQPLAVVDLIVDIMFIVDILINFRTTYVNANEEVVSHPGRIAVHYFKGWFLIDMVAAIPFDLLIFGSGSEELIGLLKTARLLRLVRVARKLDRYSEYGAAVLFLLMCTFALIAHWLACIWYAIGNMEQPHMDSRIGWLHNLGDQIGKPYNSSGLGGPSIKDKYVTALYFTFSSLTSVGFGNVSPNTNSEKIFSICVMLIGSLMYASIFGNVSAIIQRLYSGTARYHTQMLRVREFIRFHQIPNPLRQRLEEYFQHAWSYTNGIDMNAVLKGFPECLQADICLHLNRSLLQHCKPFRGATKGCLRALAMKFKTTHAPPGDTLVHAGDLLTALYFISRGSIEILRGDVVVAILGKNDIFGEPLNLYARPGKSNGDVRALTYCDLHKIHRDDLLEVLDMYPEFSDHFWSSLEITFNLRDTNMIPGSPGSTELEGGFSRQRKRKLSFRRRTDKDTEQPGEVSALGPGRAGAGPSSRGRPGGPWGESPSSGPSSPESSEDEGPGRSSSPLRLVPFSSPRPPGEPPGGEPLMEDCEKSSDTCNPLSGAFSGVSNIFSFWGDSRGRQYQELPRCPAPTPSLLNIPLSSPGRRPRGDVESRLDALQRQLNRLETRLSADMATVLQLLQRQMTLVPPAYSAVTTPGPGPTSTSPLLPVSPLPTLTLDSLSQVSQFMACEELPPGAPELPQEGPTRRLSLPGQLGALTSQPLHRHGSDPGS

SMILES | hERG current change (%, negative = inhibition) at 1uM [%]
COc1cc(NC(=O)COC(C)=O)c(C)cc1[N+](=O)[O-] | 19.6
CN(c1cccc(NC(=O)c2ccccc2N(Cc2ccccc2)S(C)(=O)=O)c1)S(C)(=O)=O | 18.6
O=C(Nc1ccc2c(c1)oc1ccccc12)c1cccnc1 | 12.1
O=C(NC(Cc1ccccc1)C(=O)O)C1CCN(S(=O)(=O)c2ccccc2C(F)(F)F)CC1 (stereo not shown) | 12.3
O=C1N(Cc2cccnc2)C[C@@H]2C[C@@H](c3ccc(C(F)(F)F)cc3)N3CCC[C@@]123 | -18.6
CN1CCN(C(=O)COc2ccc(Oc3ccccc3)cc2)CC1 | 2.64
CCCOc1ccc(CNC(=O)Cn2ncc3ccccc32)cc1 | 3.93
C/[N+]([O-])=C\c1cccc(OCCN2CCN(c3ncc(C(F)(F)F)cc3Cl)CC2)c1 | 1.19
COc1ccc(-c2nnc(NC(=O)C3=COCCO3)o2)cc1 | 8.41
Cc1ccc(C(=O)N2CCN(c3ccccc3)CC2)cc1S(=O)(=O)N1CCOCC1 | 0.15
COc1cc(NC(=S)Nc2cccnc2)cc(OC)c1 | 4.82
Cc1csc(SCC(=O)Nc2cccc(S(=O)(=O)N3CCOCC3)c2)n1 | 8.65
O=C(NC(NCC1CCCO1)C(Cl)(Cl)Cl)c1cccc2ccccc12 (stereo not shown) | 8.75
COc1cc(OC)c(C2N(c3ccccn3)C(=O)C3CCCN32)cc1OC (stereo not shown) | 12.8
CN1CCc2cc(Cl)c(O)cc2[C@@H](c2ccccc2)C1.Cl | -18.7
CCc1nn(CCCC(=O)NCc2ccccc2C)c(=O)c2cc3occc3n12 | 8.99
CC12CCC(C(=O)Nc3cc(F)ccc3F)(CC1=O)C2(C)C (stereo not shown) | 0.45
Cc1ccc(CSc2nc3sc(C)c(C)c3c(=O)n2Cc2ccco2)cc1 | -2.01
COc1ccccc1-c1ccc(NC2CCCCC2)nn1 | -14
CCC(CC)NC(=O)Nc1ccc(C)cc1 | 11.4

SMILES | hERG current change (%, negative = inhibition) at 1uM [%]
O=C(N/C(=C/c1ccco1)C(=O)N1CCc2ccccc21)c1ccco1 | 7.21
COc1ccc(NC(=O)CSC2CCCCC2)cc1 | -6.14
CCN1CCN(C(=O)CSCc2nc(-c3ccc(OC)c(OC)c3)oc2C)CC1 | -14.9
CCCc1cc(=O)oc2cc(C)cc(OCC(=O)NCCN3CCOCC3)c12 | 12.8
CN(CC(=O)Nc1ccc(Cl)cc1)C1=NS(=O)(=O)c2ccccc21 | 9.12
COc1cccc(CNC(=O)CSCC(=O)Nc2cc(C)on2)c1 | 11.9
COc1ccc(/C=C2\CCCC3C2=NN(C(=O)CSc2n[nH]c(N)n2)C3c2ccc(OC)cc2)cc1 (stereo not shown) | 12.5
Cc1cc(C(=O)OCC(=O)NCCc2ccccc2)c(C)o1 | 8.59
Cn1ccnc1Sc1ccc(/C=N/NC(=O)c2ccccc2O)cc1[N+](=O)[O-] | -0.052
NC(=S)N/N=C/c1ccc(-c2ccc(Cl)c(Cl)c2)o1 | 5.38
COC(=O)N/N=C/c1cn(Cc2ccccc2Cl)c2ccccc12 | 17.2
Cc1cccn2c(=O)c(/C=C(\C#N)C(=O)NC3CCS(=O)(=O)C3)c(N3CCC(C)CC3)nc12 (stereo not shown) | -11
CC(C)N1CC(C(=O)Nc2ccc(C#N)cc2)CC1=O (stereo not shown) | 14.9
COc1ccc(NC(=O)CSc2ccc(-c3sc(C)nc3C)nn2)cc1 | 16.7
OC1/C(=C/c2ccccc2F)N2CCC1CC2 (stereo not shown) | 10.7
CN(CC(=O)Nc1cccc(F)c1)C(=O)CCNC(=O)c1ccco1 | 14.7
CC(=O)c1ccc(-c2ccc(C(=O)NCC3CCCO3)o2)cc1 (stereo not shown) | -24.7
Cn1c(C(=O)O)cc2cc(Oc3ccccc3)ccc21 | 10.4
Cc1occc1C(=O)N1CCN(S(C)(=O)=O)CC1 | 3.57
CSCC(C)N1CCC(CO)(CCc2ccccc2)CC1 (stereo not shown) | 13.9

SMILES | hERG current change (%, negative = inhibition) at 1uM [%]
CCOC(=O)c1cc(-c2c(Cl)cccc2Cl)no1 | 15.6
C/C=C(\CS(=O)(=O)c1ccccc1)S(=O)(=O)c1ccccc1 | 6.36
Cc1cc(C(=O)N/N=C/c2cc(Br)cc([N+](=O)[O-])c2O)c2ccccc2n1 | 5.39
Cc1nc(C)c(-c2csc(Nc3ccc(O)cc3C)n2)s1 | 4
COc1cc2ccccc2cc1C(=O)OCC(=O)N(C)c1c(N)n(Cc2ccccc2)c(=O)[nH]c1=O | 6.83
CCn1cc(S(=O)(=O)Nc2ccc3c(c2)OCCO3)cn1 | 21.5
O=C1C2C3C=CC(C2C(=O)N1c1cccc(O)c1)C1C2C(=O)N(c4cccc(O)c4)C(=O)C2C31 (stereo not shown) | 6.46
COc1ccc(S(=O)(=O)Nc2c(C)n(C)n(-c3ccccc3)c2=O)cc1 | 5.55
Cn1cc(CCC(=O)NCc2cccc(Cl)c2)c2ccccc21 | 16.7
CC(Nc1cc(=O)n(C)c(=O)[nH]1)c1ccccc1 (stereo not shown) | 12.2
Cl.O=C(CN1CCN(C2CCCCC2)CC1)NCCC1=CCCCC1 | 3.52
CCc1cc(SC#N)cc(C)c1N | 13.1
Cc1ccc(C)c(S(=O)(=O)N2CCN(CC(=O)N3CCc4ccccc4C3)CC2)c1.O=C(O)C(=O)O | -0.895
O=C(CNC(=O)c1cccc(Br)c1)N/N=C/c1ccc[nH]1 | 13.2
Clc1ccccc1CN1CCN(/N=C/C=C/c2ccco2)CC1 | 11.7
OCCN1CCN(CCCN2c3ccccc3Sc3ccc(Cl)cc32)CC1 | 8.09
CCCCc1ccc(NC(=S)NCCN2CCOCC2)cc1 | -15
CSc1ccccc1C(=O)NCCSc1ccccc1 | 7.34

Source: PMC4336329 (PLoS ONE, 2015)
